{"source": "PubChem BioAssay AID686971", "about": "(National Center for Advancing Translational Sciences (NCATS), 2013)", "note": "Hit rate of the full screen: of about 360,000 compounds, about 7,500 (2.1%) were called active. The inconclusive results got no clear call from the source; some entries with a clear call stand among them for comparison. Calls come from the whole dose curve; as a rule, active = well fitted cell-killing curve with a large enough effect; inconclusive = small, poorly fitted or top-dose-only effect, or effect the other way, or another doubt; inactive = no such curve, though single readings can be large or run the other way. No potency is given beside an inconclusive call; the fits are too rough. Potency is the fitted concentration of half-maximal effect; tags give direction and shape of the fitted curve."}
{"test": "qHTS for induction of synthetic lethality in tumor cells producing 2HG: qHTS for the HT-1080-IDH1KD cell line;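 for activity, negative = toxicity: 0% = DMSO wells and -100% = cell-free medium wells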", "details": "HT-1080 IDH1 knockdown viability, ATP luminescence, 48 h; activity, negative = toxicity: at 46.1 µM (top of the series) unless noted", "outline": "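HT-1080-IDH1KD cells (IDH1 knocked down), 750/well in RPMI with 5% FBS, treated with compound 48 h at 37 degrees C. Viability by CellTiter-Glo luminescence, normalised to DMSO and no-cell wells; concentration-response curves classed.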"}
{"smiles": "O=C(Cc1ccc(N2CCNC2=O)cc1)N1CCCC(Nc2cccc(F)c2)C1", "note": "(stereo not given)", "Potency": "active: 5.8 µM"}
{"smiles": "COc1ccc(COC(=O)CCNC(=O)c2ccc(Cl)cc2)cc1", "Potency": "inactive"}
{"smiles": "Cc1cccc(C)c1-c1ccc(CN2C(CC(C)C)C(=O)N(Cc3cn(CC4CCCCC4)nn3)CCS2(=O)=O)cc1", "note": "(stereo not given)", "Potency": "inconclusive [cytotoxic, single point]"}
{"smiles": "OC[C@H]1O[C@@H](c2nc(-c3ccccc3Br)no2)[C@H](O)[C@@H]1O", "Potency": "active: 14.6 µM"}
{"smiles": "Cc1ccc2c3c1C1(C(=O)N3C(C)(C)CC2C)C(C#N)=C(N)Oc2cc(O)ccc21", "note": "(stereo not given)", "Potency": "inconclusive [cytotoxic, single point]"}
{"smiles": "CCN(CC)CCCNC(=O)C1CCN(C(=O)c2cc3sccc3n2Cc2ccc(F)cc2)CC1", "Potency": "inconclusive [cytotoxic, single point]"}
{"smiles": "c1ccc(Nc2ncnc3sc4c(c23)CCC4)cc1", "Potency": "inactive"}
{"smiles": "COc1cc(CCC(=O)Nc2ccc(Br)c(C(F)(F)F)c2)cc(OC)c1OC", "Potency": "inconclusive [cytotoxic, single point]"}
{"smiles": "COc1ccc(Cl)cc1C(=O)NNC(=S)NC(=O)c1cc(-c2ccccc2)nc2ccccc12", "Potency": "inconclusive [cytotoxic, single point]"}
{"smiles": "C=CCn1c(SCC(=O)c2ccc(O)c(O)c2)nnc1-c1cccnc1", "Potency": "inactive"}
{"smiles": "COc1cc(/C=N/N2CCN(c3ccccc3)CC2)cc(OC)c1OC(C)=O", "Potency": "inactive"}
{"smiles": "Fc1ccc(N2CCN(C3=Nc4cccc5cccc3c45)CC2)cc1", "Potency": "inconclusive [cytotoxic, single point]"}
{"smiles": "Nc1nc2ccccc2n1C(=O)c1ccccc1", "Potency": "inconclusive [cytotoxic, single point]"}
{"smiles": "CC(C)(C)c1cc(=O)n(-c2ccccc2)[nH]1", "Potency": "inconclusive [cytotoxic, single point]"}
{"smiles": "COc1cc(/C=N\\NC(=O)c2ccc(-c3ccccc3)cc2)ccc1OCC(N)=O", "Potency": "inconclusive [cytotoxic, single point]"}
{"smiles": "CN(C)CCCn1c(N)c(C#N)c2nc(C#N)c(C#N)nc21", "Potency": "inconclusive [cytotoxic, single point]"}
{"smiles": "Cc1cccc(NC(=O)c2ccc(CN3CCc4ccccc4C3)cc2)c1C", "Potency": "inconclusive [cytotoxic, partial curve]"}
{"smiles": "CCOC(=O)c1nnc(-c2ccccc2)nc1Sc1ccccc1Cl", "Potency": "active: 20.6 µM"}
{"smiles": "O=[N+]([O-])c1ccc(Cl)cc1NCCCN1CCOCC1", "Potency": "inactive"}
{"smiles": "CCCCOc1ccc(Br)cc1CSC(=N)N", "Potency": "active: 18.4 µM"}
{"smiles": "OCCN1CCN(c2ncnc3c2ncn3[C@H]2CN(Cc3ccc(-c4ccccc4)cc3)C[C@@H](CO)O2)CC1", "Potency": "inconclusive [cytotoxic, single point]"}
{"smiles": "O=C(N/N=C/c1ccc(F)cc1)c1cc(-c2ccco2)nc2ccccc12", "Potency": "active: 16.4 µM"}
{"smiles": "Cc1ccc(S(=O)(=O)NCCC(=O)N2CCN(c3ccccc3)CC2)cc1C", "Potency": "inconclusive [cytotoxic, single point]"}
{"smiles": "OCc1c[nH]c2ccccc12", "Potency": "inactive"}
{"smiles": "Cc1c(CCOC(=O)C23CC4CC(CC(C4)C2)C3)sc[n+]1CC#N", "Potency": "inconclusive [cytotoxic, single point]"}
{"smiles": "O=[N+]([O-])c1ccc(N/N=C\\c2cccn2-c2ccccc2)nc1", "Potency": "inconclusive [cytotoxic, partial curve]"}
{"smiles": "Cc1onc(-c2ccccc2)c1C(=O)OCCOc1ccc([N+](=O)[O-])cc1[N+](=O)[O-]", "Potency": "inconclusive [cytotoxic, partial curve]"}
{"smiles": "O=C(N/N=C/c1ccccc1O)C1(O)c2ccccc2-c2ccccc21", "Potency": "inconclusive [cytotoxic, single point]"}
{"smiles": "COc1ccc(NC(C)C(=O)N/N=C/c2c(O)ccc3ccccc23)cc1", "note": "(stereo not given)", "Potency": "inconclusive [cytotoxic, partial curve, poor fit]"}
{"smiles": "CCC[C@H](CN[C@@H](CNC)[C@H](C)CC)NCCc1cc(C(F)(F)F)cc(C(F)(F)F)c1", "Potency": "inconclusive [cytotoxic, single point]"}
{"smiles": "Clc1cccc(Cc2c(-c3ccco3)nc3ccc(Cl)cn23)c1", "Potency": "active: 18.4 µM"}
{"smiles": "CC(C)N1CCC2(CC1)Oc1ccc(Br)cc1C1CC(c3cccnc3)=NN12", "note": "(stereo not given)", "Potency": "inconclusive [cytotoxic, single point]"}
{"smiles": "CCCCCCN1CC(=O)N2[C@@H](Cc3c([nH]c4ccccc34)C2(C)C)C1=O", "Potency": "inconclusive [cytotoxic, partial curve]"}
{"smiles": "COc1cc(Cl)cc(/C=C/c2ccc3ccccc3n2)c1OC(C)=O", "Potency": "active: 14.6 µM"}
{"smiles": "Clc1ccccc1OCCNc1nc(NCC2CC2)nc2ccsc12", "Potency": "active: 18.4 µM"}
{"smiles": "Cc1cccc(NC(=O)CSc2ncnc3nc[nH]c23)c1C", "Potency": "inactive"}
{"smiles": "CC(NC(=O)CN1C(=O)NC(Cc2ccccc2)(Cc2ccccc2)C1=O)C12CC3CC(CC(C3)C1)C2", "note": "(stereo not given)", "Potency": "inconclusive [cytotoxic, single point]"}
{"smiles": "COc1cc(/C=N\\NC(=O)c2ccccc2F)ccc1Oc1ccc([N+](=O)[O-])cn1", "Potency": "active: 7.31 µM"}
{"smiles": "CCCCn1c(N)c(N(CCOC)C(=O)c2cc3ccccc3cc2OC)c(=O)[nH]c1=O", "Potency": "inactive"}
{"smiles": "COc1cccc(/C=N/NC(=O)c2cc(-c3cccn3C)n[nH]2)c1O", "Potency": "inconclusive [cytotoxic, full curve]"}
{"smiles": "COc1ccc(Cc2nnc(SCC(=O)Nc3c(C)cccc3C)[nH]c2=O)cc1", "Potency": "inactive"}
{"smiles": "CCOC(=O)c1sc2ccc(S(=O)(=O)N3CCCCC3)cc2c1N", "Potency": "inconclusive [cytotoxic, partial curve]"}
{"smiles": "CN(Cc1ccccc1O)CC1CCCN(CCc2ccc(Cl)cc2)C1", "note": "(stereo not given)", "Potency": "inconclusive [cytotoxic, single point]"}
{"smiles": "O=C(c1ccc(Cn2cnnn2)cc1)N1CCCC(Nc2ccc(F)c(F)c2)C1", "note": "(stereo not given)", "Potency": "inactive"}
{"smiles": "Cc1cc(NC(=O)/C=C/C(=O)N(CC(=O)NC2CCCC2)c2ccc(F)cc2)no1", "Potency": "inconclusive [cytotoxic, single point]"}
{"smiles": "N=c1n(CCN2CCCCC2)c2ccccc2n1CC(=O)c1ccc(Cl)c(Cl)c1", "Potency": "active: 20.6 µM"}
{"smiles": "CNC(=O)C1C(=S)NC(N)=C(C#N)C1c1ccccc1", "note": "(stereo not given)", "Potency": "inconclusive [cytotoxic, single point]"}
{"smiles": "COc1ccc(CC(=O)NCc2cccc(Cl)c2)cc1S(=O)(=O)N1CCOCC1", "Potency": "inactive"}
{"smiles": "COc1ccc2nc(-c3cccc(N)c3)[nH]c2c1", "Potency": "inactive"}
{"smiles": "O=C(Nc1ccc2nc(-c3cccnc3)[nH]c2c1)C1CCCCC1", "Potency": "inconclusive [cytotoxic, single point]"}
{"smiles": "CC(C)(C)C(=O)COC(=O)c1c2c(nc3ccccc13)CCC2", "Potency": "inactive"}
{"smiles": "O=C(Cc1ccccc1)Nc1nnc(-c2ccco2)o1", "activity, negative = toxicity": "inconclusive: 32.5%"}
{"smiles": "O=C(COC(=O)c1cccc(S(=O)(=O)N2CCOCC2)c1)NCc1ccccc1", "Potency": "inactive"}
{"smiles": "CC(C)CN(C(=O)CCCOc1ccc(Cl)cc1Cl)c1c(N)n(Cc2ccccc2)c(=O)[nH]c1=O", "Potency": "inconclusive [cytotoxic, partial curve, poor fit]"}
{"smiles": "COc1ccc(-c2ccc(C(=O)NCc3ccc(F)c(F)c3)c3occc23)c(C)c1", "Potency": "inconclusive [cytotoxic, single point]"}
{"smiles": "Cn1ncc2c(NCc3ccccc3)ncnc21", "Potency": "inactive"}
{"smiles": "CN1CCN(NC(=O)COc2cccc(C(F)(F)F)c2)CC1", "Potency": "inactive"}
{"smiles": "O=C(NCc1cccnc1)c1csc([C@H]2C[C@H](O)[C@@H](CO)O2)n1", "Potency": "inactive"}
{"smiles": "Cc1ncc(CO)c(/C=N/NC(=S)Nc2ccc(C(C)C)cc2)c1O", "Potency": "inconclusive [cytotoxic, partial curve, poor fit]"}
{"smiles": "COc1ccc(N(C(=O)c2cccnc2)S(=O)(=O)c2ccc3c4c(cccc24)C(=O)N3C)cc1", "Potency": "inconclusive [cytotoxic, partial curve]"}
{"smiles": "CCOc1cc(/C=C2\\CCCC(C(=O)C(F)(F)F)=C2O)ccc1O", "Potency": "inconclusive [cytotoxic, single point]"}
{"smiles": "CCC(CC)c1nc(C#N)c(NCc2ccccc2)o1", "Potency": "inconclusive [cytotoxic, partial curve]"}
{"smiles": "O=C(/C=C/c1ccc(O)cc1)c1ccc(O)cc1O", "Potency": "active: 23.1 µM"}
{"smiles": "CCCCc1c(-c2ccccc2F)ncn1CCc1ccccc1OC", "Potency": "inconclusive [cytotoxic, single point]"}
{"smiles": "COc1ccc(-n2c(C)cc3cc(OC(C)=O)ccc32)cc1", "Potency": "inconclusive [cytotoxic, single point]"}
{"smiles": "COc1cc(C(=O)C(=O)N2CCN(c3ccccc3)CC2)cc2ccccc12", "Potency": "inactive"}
{"smiles": "COc1ccc(-c2ccccc2[C@H]2[C@@H]3C=CC[C@@H](C)[C@@H]3C(=O)N2Cc2ccccc2)cc1", "Potency": "inconclusive [cytotoxic, single point]"}
{"smiles": "O=C(/C(=N/N=C/c1ccc(O)c(O)c1)c1ccccc1)c1ccccc1", "Potency": "inconclusive [cytotoxic, single point]"}
{"smiles": "Cc1ccc(-c2nc3ncccc3o2)cc1NC(=O)COc1ccccc1", "Potency": "inconclusive [rising, single point]"}
{"smiles": "CCOc1ccc(CCN2C(=O)C(=O)N([C@@H](Cc3ccccc3)CN3CCC[C@H]3CN3C(=O)C(=O)NC[C@@H]3CC(C)C)C[C@@H]2Cc2ccc(O)cc2)cc1", "Potency": "inconclusive [cytotoxic, single point]"}
